Data published in ChEMBL document CHEMBL4888484, “Replenishing the malaria drug discovery pipeline: Screening and hit evaluation of the MMV Hit Generation Library 1 (HGL1) against asexual blood stage Plasmodium falciparum ,using a nano luciferase reporter read-out” (2022).
Hit rate of the full screen: of about 150,000 compounds, about 540 (0.36%) showed an effect of 50% or more. The list shows a part of the results.

system: Plasmodium falciparum; assay: Primary screen in NF54 nanoGlo assay, in single point, at 2uM, 72h; a lower Z score goes with more inhibition; assay type: functional, Erythrocyte; conditions: timepoint 72 hour

Row | Structure (SMILES) | % Inhibition [%] | Z score
1 | Cc1ccccc1NC(=O)c1ccc(N2C(=O)[C@@H](C)CS2(=O)=O)cc1Cl | -8 | 1.06
2 | CN1CCN(C[C@H]2CCCN(C(=O)c3cc(F)cc(C#N)c3)C2)CC1 | -10 | 1.33
3 | COc1ccc(OC)c2c1cc(C(=O)N1C[C@@H]3C[C@@H](C1)C1CCCC(=O)N1C3)n2C (stereo partly specified) | -20 | 2.5
4 | C[C@H]1CN(C(=O)c2csc3ccccc23)CC(=O)N1 | -23 | 2.42
5 | CCN1C[C@H](NS(=O)(=O)c2cnn(C)c2C)[C@@H](OC)C1 | -13 | 1.68
6 | Cc1nonc1CN1CC[C@@]2(CCCN(C3CCCCC3)C2=O)C1 | -1 | 0.17
7 | O=C([C@H](O)c1ccccc1)N1CCc2[nH]c(-c3ccccc3)nc2C1 | -17 | 2.3
8 | Cc1cc(COCC(=O)N2CC3C(C2)C3(C)C)on1 (stereo unspecified) | -9 | 0.93
9 | Nc1nc2c(s1)CN(CCc1ccccc1)CC2 | 32 | -6.83
10 | CCO[C@H]1CC(NCc2ccccc2OC)[C@@]12CCCO2 (stereo partly specified) | -2 | 0.32
11 | CCC(C)(CC)[C@@](O)(C#CC[N+]1(Cc2ccccc2)CCCCC1)c1ccccc1 | 38 | -1.99
12 | COc1ccc(-c2c(O)nnc3c(-c4ccccc4)cnn23)cc1 | -17 | 2.12
13 | COCCN1C[C@H](O)C(C)(C)COCCC[C@H]2CN(Cc3ccc(OC(F)(F)F)cc3)CC[C@H]2CC1=O | 12 | -1.93
14 | CO[C@@H](C)c1nc(CN(C)C(=O)c2cn(C)nc2C2CC2)cs1 | -5 | 0.7
15 | CCCS(=O)(=O)N(CCOC)CC(=O)N(Cc1ccc(Cl)cc1)C1CCN(C(=O)c2cccs2)CC1 | -16 | 2.19
16 | C[C@H]1CCCN(C2CCN(c3c4c(nc5ncnn35)CCCC4)CC2)C1 | -11 | 1.14
17 | Cc1oc(-c2cccc(F)c2F)nc1CN(Cc1ccccc1)CC1CC1 | -12 | 1.44
18 | COc1ccc(-c2cc(C(=O)N[C@@H](C)C(=O)N3CCN(C)CC3)no2)c(OC)c1 | -2 | 0.36
19 | CC[C@H](NCc1cc(C)c(OC(C)=O)c(C)c1)c1ccnn1C | -14 | 1.84
20 | CCNC(=O)N1CC=C(C(=O)Nc2ccccc2F)CC1 | -2 | 0.37
21 | CCC(C(=O)O)N1CCC2C(CCCN2Cc2ccccc2)C1 (stereo unspecified) | -10 | 1.57

Row | Structure (SMILES) | % Inhibition [%] | Z score
22 | COc1ccc(S(=O)(=O)[C@H]2CS(=O)(=O)C[C@@H]2N2CCC(C(N)=O)CC2)cc1C | -2 | 0.28
23 | CN1CCN(CC[C@H]2CCCCN2C(=O)CCc2ccc(F)cc2F)CC1 | -2 | 0.47
24 | C[C@@]12CCCN1C(=O)N(C1CCN(c3ccccn3)CC1)C2=O | -22 | 2
25 | CCc1nnc2c(Oc3ccc(NC(=O)Cc4ccc(F)cc4)cc3)nc3ccccc3n12 | 7 | -0.78
26 | O=C(C1CC1c1cccc(F)c1)N1CCCC(CN2CCOCC2)C1 (stereo unspecified) | 0 | 0.01
27 | Brc1cncnc1NCc1ccc(N2CCCCC2)nc1 | -10 | 1.85
28 | Cn1cncc1-c1ccc(N2CCCC2)nc1 | -6 | 1.03
29 | C[C@@H](Cc1cccs1)NC(=O)c1cnn(C)c1 | 4 | -0.59
30 | CCc1[nH]nc(-c2cccs2)c1NC(=O)CC1CCCC1 | -2 | 0.26
31 | CCCc1nnc(C(=O)N(C)Cc2ccccc2)o1 | -12 | 2.07
32 | NC(=O)CN1CCCN(C(=O)c2ccsc2NC(=O)c2cccs2)CC1 | -10 | 1.38
33 | Cc1noc(C)c1CN1C(=O)[C@@H]2CC[C@H]1CN(C(=O)N1CCCC1)C2 | -6 | 0.68
34 | CCOc1ncccc1NC(=O)OCC(F)(F)F | -18 | 3.41
35 | CCn1nc(C)c(CNC[C@H]2CN(C3CC3)CCO2)c1C | 11 | -1.94
36 | CN(C(=O)OC(C)(C)C)C1CCN(C(=O)CC2C=CCC2)C1 (stereo unspecified) | 0 | 0.09
37 | Cc1cnn(CCn2cc(-c3cccc(Cn4cccn4)c3)nn2)c1 | -26 | 2.39
38 | NC(=O)COc1ccc([C@H]2CC(=O)Nc3c2ncn3-c2cccnc2)cc1 | -6 | 0.74
39 | COc1cccc(C(=O)N2CC[C@H](n3nccn3)C2)c1OC | 5 | -0.74
40 | O=C(O)COc1ccccc1CN1CC(c2ccccn2)C1 | -2 | 0.31
41 | Cc1cc(CS(=O)(=O)[C@@H](C)C(=O)N2CCc3ccccc32)no1 | -8 | 1.05
42 | O=c1[nH]nc2n1CCN(Cc1cccc3ccccc13)C2 | -7 | 1.12

Row | Structure (SMILES) | % Inhibition [%] | Z score
43 | COc1cccc(CC(=O)N2CCC(c3nc(C)ccc3C(=O)N3CCN(C4CCCCC4)CC3)CC2)c1 | -6 | 0.81
44 | O=C(NCc1ccc2c(c1)OCO2)c1csc(-c2ccnc(N3CCOCC3)c2)n1 | -4 | 0.75
45 | COc1ccc(S(=O)(=O)N2CCOCC2)cc1NC(=O)c1ccc2c(c1)C(=O)N(c1ccccc1C)C2=O | -5 | 0.77
46 | COc1ccccc1-n1c(N)c(-c2nc3ccccc3n2Cc2ccccc2)c2nc(C#N)c(C#N)nc21 | -1 | 0.11
47 | Cc1cccc(S(=O)(=O)NCCC(N)=O)c1F | 2 | -0.28
48 | Cc1nc(C(=O)NC[C@@H](c2ccco2)N2CCCC2)cs1 | -17 | 3.35
49 | CCOc1ccc(-c2nc(C(N)=O)c3c(n2)n(-c2ccc(C)c(C)c2)c(=O)n3Cc2ccccc2)cc1 | -3 | 0.44
50 | O=C1C2CCCCC2C(=O)N1CN1CCCCC1 (stereo unspecified) | -1 | 0.15
51 | Cc1ccccc1NC(=O)CC(=O)N(C)Cc1snnc1C | -4 | 0.53
52 | c1cc2ccc(-c3noc(CC4CCOCC4)n3)cc2[nH]1 | -2 | 0.22
53 | Cc1noc(CCCNC(=O)C(=O)Nc2cc(F)ccc2F)n1 | -7 | 1.36
54 | CCCN(Cc1c(C)nn(-c2ccccc2)c1N1CCN(CC)CC1)S(=O)(=O)c1ccc(C)cc1 | 39 | -5.27
55 | O=S(=O)(Nc1cnn([C@H]2CCOC2)c1)c1ccccc1 | 28 | -3.6
56 | FC(F)(F)c1cccc(-n2ncnc2CCCn2cccn2)c1 | -4 | 0.44
57 | O=C(C1CCC1)N1CCC[C@H]1c1nc2cc(-c3ccc(F)cc3F)ccc2o1 | -34 | 3.25
58 | Cn1ncc(CN2CC[C@H](c3ccc(F)cc3)[C@@H](O)C2)c1C1CC1 | -10 | 1.79
59 | COCC(=O)N1CCC[C@H]1C(=O)OC | -2 | 0.25
60 | COC[C@H]1CCCN1C(=O)Cn1nc(C)c(C)c1C | -5 | 0.67
61 | COc1ccc(CCNC(=O)CN2C(=O)c3cc4ccccc4cc3Oc3ncccc32)cc1 | -8 | 1.58
62 | NC(=O)c1ccc(N2CC3CCCC3C2)nn1 (stereo unspecified) | -9 | 1.06
63 | COc1cc(-c2nc(C(=O)N(C)Cc3ccccc3)cs2)ccc1OCc1ccc(F)cc1 | -10 | 1.43

Row | Structure (SMILES) | % Inhibition [%] | Z score
64 | O=C(CC1CCCC1)NCc1cn(-c2cccs2)nn1 | 13 | -1.7
65 | CC[C@@H]1CN(Cc2c(Cl)ccc(OC)c2F)CC[C@]1(C)O | -11 | 2.23
66 | CCN1C[C@@H](C(=O)Nc2ccnn2-c2nc(C)cc(C)n2)CC1=O | -3 | 0.49
67 | CC(=O)N1CCN(C2CN(CCOc3cccc(C)c3)CC2C)CC1 (stereo unspecified) | 7 | -0.96
68 | COc1ccccc1[C@H](C)NC(=O)N(CC(C)(C)O)C(C)C | -12 | 1.01
69 | O=C(O)c1ccc2c(c1)NC(=O)c1ccccc1N2 | -14 | 1.57
70 | COc1cccc(N2CCN(C3CCN([C@H]4CCCCC4=O)CC3)CC2)c1 | -8 | 1.07
71 | CC(C)N(C)c1cnn([C@H]2CCCN(C(=O)C3(C)COC3)C2)c(=O)c1 | -7 | 1.04
72 | COc1cccc2c1OC[C@@H](C(=O)N1CCc3ccccc3C1)C2 | -21 | 3.93
73 | Cc1cccc(NS(=O)(=O)c2ccc3c(c2)CCN3)n1 | -29 | 3.38
74 | CC(=Cc1ccccc1)CN1CC[C@H](c2nccn2C)C1 | -1 | 0.1
75 | O=C(Nc1ccc(N2CCCC2=O)cn1)[C@@H]1C[C@H]2CC[C@@H]1O2 | 3 | -0.37
76 | COCCCn1c(NS(=O)(=O)c2ccc3ccccc3c2)c(S(=O)(=O)c2ccc(C)cc2)c2nc3ccccc3nc21 | 57 | -8.33
77 | O=C(CCCc1ccccc1)N1CC2CCCC(C1)C2O (stereo unspecified) | -5 | 0.75
78 | Cn1nc([C@@H]2CCCN2C(=O)CC2CCCC2)n(Cc2ccccc2)c1=O | -15 | 1.99
79 | CCc1nnc(CN2C[C@@H](CC(C)C)CC2=O)o1 | -13 | 2.42
80 | COCC1(c2noc([C@@H]3CCCS3(=O)=O)n2)CCCC1 | -12 | 1.48
81 | CCOC(=O)c1coc(N2CCC3(CC2)C[C@H](c2ccccc2)CN(C)C3)n1 | -7 | 1.12
82 | COc1cc(CNCCc2ccccc2F)ccc1OCc1nnnn1-c1ccc(C)cc1 | 38 | -1.16
83 | CCc1ccc(C(=O)Nc2ccc3c(c2)NCCC3)o1 | -8 | 1.14
